In ChEMBL document CHEMBL1201862, “PubChem BioAssay data set” (2004):

test system: NCI-H322M; assay: NCI tumour cell line growth inhibition, 48 h

| SMILES | GI50 |
| --- | --- |
| O=C(c1ccc(Cl)cc1)c1cnc(Nc2ccccc2Cl)s1 | inactive: 22.1 µM |
| COc1cccc(C=O)c1C(=O)c1cc(O)ccc1O | inactive: > 100 µM |
| CCOC(=O)c1cc(-c2ccc(OC)cc2)c([N+](=O)[O-])n1C | inactive: > 10 µM |
| Oc1ccc(O)c(Cc2ccccc2)c1 | inactive: 28 µM |
| Cc1nc2c(s/c(=N\N)n2-c2ccccc2)c(=O)n1C | inactive: > 100 µM |
| O=C(Cn1c(-c2ccccc2)cc2ccccc21)N1CCOCC1 | inactive: > 100 µM |
| Nc1nc(Nc2ccccc2)sc1C(=O)c1ccc(Cl)cc1 | inactive: 2.43 µM |
| CCOC(=O)C(Cc1ccc2ccccc2c1)(Cc1ccc2ccccc2c1)C(C)=O | inactive: > 10 µM |
| CC(=O)Oc1cc(Cl)c(C)c2c1[C@H]1CC[C@]3(C)[C@@H](OC(C)=O)CC[C@H]3[C@@H]1CC2 | inactive: > 100 µM |
| COc1ccc(/C(Cl)=C(\CNc2ccccn2)c2ccccc2)cc1OC | inactive: > 100 µM |
| COC(=O)C1(OC(=O)Sc2ccccc2)CCN(C)CC1 | inactive: > 100 µM |
| N=C(N)SCc1ccc2c(c1)Sc1ccccc1O2 | inactive: 6.08 µM |
| NCCCN(CCCN)CCc1cn(C(=O)c2ccccc2)cn1 | inactive: 13.1 µM |
| Cc1cc(NC2=CC(=O)C(=O)c3ccccc32)no1 | inactive: 16.9 µM |
| O=C(O)c1ccc2nc(-c3ccccn3)c(-c3ccccn3)nc2c1 | inactive: > 100 µM |
| O=C(CCN1CC2CCC(CC2)C1)c1cccs1 | inactive: > 100 µM |
| COC(=O)C(NC(=O)CSc1nnc(COc2ccc(Cl)cc2)n1-c1ccccc1)C(C)C (configuration not stated) | inactive: 24.2 µM |
| CC(=O)O[C@@H]1[C@@H](O)C2=C3[C@]4(C)[C@@H]1C(C)(C)C(=O)C[C@@H]4[C@]3(O)[C@H](OC(C)=O)[C@@]1(C[C@@H]1C)C2=O | inactive: 17.9 µM |
| O=C(N/N=C(COc1ccccc1)\N=C\c1ccncc1)c1ccncc1 | inactive: > 100 µM |

| SMILES | GI50 |
| --- | --- |
| CCOC(=O)c1c(-c2ccc(Cl)cc2)c(C#N)c(=S)n(C2OC(CO)C(O)C(O)C2O)c1-c1ccccc1 (configuration not stated) | inactive: 30.9 µM |
| Cc1c(C(=O)NNc2ccccc2)n2c(S)nnc2c2ccccc12 | inactive: > 100 µM |
| CCOC(=O)c1sc2c(c1OC(=O)c1ccc(OC)cc1)c(=O)n(-c1ccccc1)c(=S)n2-c1ccccc1 | inactive: > 100 µM |
| O=[N+]([O-])/C(C(Cl)=C(Cl)Cl)=C(\Nc1cccc2cccnc12)Sc1ccccc1 | inactive: 41 µM |
| C=C1[C@@](C)([C@@H]2CCCS2)[C@H]2C(C)=C[C@]1(C)n1c(=O)n(-c3ccccc3)c(=O)n12 | inactive: > 100 µM |
| CC(=O)C1=C(O)/C(=C\c2ccco2)OC1=O | inactive: > 10 µM |
| Cc1[nH]c2ccccc2c1C1CC(=O)NC1=O (configuration not stated) | inactive: > 100 µM |
| Cn1nc(-c2ccc(S(=O)(=O)N/C(=N/c3ccc(Cl)cc3)NN)s2)cc1C(F)(F)F | inactive: 15.8 µM |
| COC(=O)/C=C\[C@@H]1[C@H](C)N1S(=O)(=O)c1ccc(C)cc1 (some centres not stated) | inactive: > 100 µM |
| Cc1cc(OCc2nn(CN3CCN(C)CC3)c(=S)n2/N=C/c2ccc(-c3ccc(Cl)cc3Cl)o2)ccc1Cl | inactive: 77.6 µM |
| CCCCCCCCOCC(CO)OCCCCCCCC (configuration not stated) | inactive: 19.5 µM |
| COc1ccccc1/C=C/c1cnccn1 | inactive: > 10 µM |
| O=C1CC(c2ccccc2)n2cccc21 (configuration not stated) | inactive: > 100 µM |
| CC(C)=CCc1cc(/C=C/C(=O)O)cc(CC=C(C)C)c1O [ARTEPILLIN] | inactive: > 100 µM |
| CCOC(=O)[C@H]1Nc2ccc([N+](=O)[O-])cc2C2c3ccccc3CC21 (some centres not stated) | inactive: 29.6 µM |
| O=c1c2ccc(Cl)cc2oc2c(CNc3ccc(S(=O)(=O)Nc4ncccn4)cc3)cccc12 | inactive: > 100 µM |
| COc1ccc(/C(Cl)=C(/c2ccc(O)cc2)c2ccc(OCCN(C)C)cc2)cc1 | inactive: 11.4 µM |
| O=C(Nc1ccccc1)N1N=C(c2ccccc2)C1c1ccccc1 (configuration not stated) | inactive: 44.5 µM |

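Each compound was tested at five concentrations against cells in 96-well plates for 48 hours. GI50 is the concentration that inhibits growth by half.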 Activity calls are given as the source filed them. No stated cut-off is given here; in the data, active = GI50 up to about 1.1 µM and inactive = higher.
